According to publication PMC4336329 (PLoS ONE, 2015):
Among all 310,000 compounds or so, about 14,000 (4.5%) showed an effect of 50% or more. The effect is printed as a negative number. Some of the results follow.

Biological target: human ether-à-go-go-related gene (hERG) potassium channel (human, UniProt Q12809)
Test: primary screen, population patch clamp on CHO cells stably expressing hERG
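Also: peak tail current of the secondary pulse compared with the same well before compound.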

Chain of human ether-à-go-go-related gene (hERG) potassium channel (Q12809 whole entry, looked up): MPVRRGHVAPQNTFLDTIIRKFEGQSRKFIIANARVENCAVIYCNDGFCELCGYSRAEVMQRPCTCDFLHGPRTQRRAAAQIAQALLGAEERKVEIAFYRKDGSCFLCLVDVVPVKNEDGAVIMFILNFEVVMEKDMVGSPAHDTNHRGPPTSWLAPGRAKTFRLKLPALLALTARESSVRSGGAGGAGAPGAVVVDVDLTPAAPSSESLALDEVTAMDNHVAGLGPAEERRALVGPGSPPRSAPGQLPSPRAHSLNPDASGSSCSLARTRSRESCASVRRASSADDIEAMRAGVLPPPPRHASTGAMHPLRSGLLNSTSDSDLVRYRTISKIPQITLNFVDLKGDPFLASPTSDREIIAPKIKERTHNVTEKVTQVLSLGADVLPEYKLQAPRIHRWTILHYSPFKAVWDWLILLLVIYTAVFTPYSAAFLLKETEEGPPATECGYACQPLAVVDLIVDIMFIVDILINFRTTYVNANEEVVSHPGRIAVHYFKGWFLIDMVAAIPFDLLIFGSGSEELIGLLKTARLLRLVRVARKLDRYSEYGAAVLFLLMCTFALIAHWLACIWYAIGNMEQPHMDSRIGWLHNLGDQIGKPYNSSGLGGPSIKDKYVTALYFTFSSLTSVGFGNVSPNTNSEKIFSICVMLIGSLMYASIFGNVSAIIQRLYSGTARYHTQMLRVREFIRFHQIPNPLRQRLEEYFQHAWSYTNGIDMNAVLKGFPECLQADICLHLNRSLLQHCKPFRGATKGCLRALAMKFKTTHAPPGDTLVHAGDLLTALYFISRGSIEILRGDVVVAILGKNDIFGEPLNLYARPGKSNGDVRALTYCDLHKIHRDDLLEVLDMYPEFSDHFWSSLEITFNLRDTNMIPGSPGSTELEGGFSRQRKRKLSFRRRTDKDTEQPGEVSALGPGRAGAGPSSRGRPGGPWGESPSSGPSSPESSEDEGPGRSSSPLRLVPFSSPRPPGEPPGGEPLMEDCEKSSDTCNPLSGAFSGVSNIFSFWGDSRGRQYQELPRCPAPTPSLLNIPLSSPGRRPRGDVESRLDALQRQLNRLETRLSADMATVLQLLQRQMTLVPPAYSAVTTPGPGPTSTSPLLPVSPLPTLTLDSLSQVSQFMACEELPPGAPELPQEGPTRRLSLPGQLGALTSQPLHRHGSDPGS

| Structure (SMILES) | hERG current change (%, negative = inhibition) at 10uM [%] |
| --- | --- |
| CCn1cc(CN2CCC(C(=O)Nc3ccc(Oc4cccnc4)cc3)CC2)c(C)n1 | -18.4 |
| COCCN(CCOC)S(=O)(=O)c1ccc(OC)cc1 | 8.79 |
| CCN(c1ccccc1)S(=O)(=O)c1cc(C(=O)NCc2ccco2)ccc1C | -27.7 |
| Cc1cc(C)c2c(N)c(C(=O)Nc3nccs3)sc2n1 | 5.76 |
| O=C(Nc1cccc(Cl)c1)N(Cc1nc2ccccc2c(=O)[nH]1)Cc1cccs1 | -7.01 |
| COc1ccc(CCN2CC(O)=C(c3nc4ccccc4c(=O)[nH]3)C2=N)cc1OC | 3.06 |
| Cc1cc([N+](=O)[O-])ccc1NC(=O)COc1nsnc1N1CCOCC1 | -29.9 |
| COc1ccc(S(=O)(=O)ON=C2CC(C)(C)N(C(C)=O)C(C)(C)C2)cc1 | 31.1 |
| CC(=O)c1ccc(OC(=O)/C=C/c2ccccc2)cc1 | 9.56 |
| CN1C(=O)/C(=C/c2ccccc2Cl)Sc2ccc(C(=O)N3CCCC3)cc21 | -3.65 |
| Cc1cc(=O)n(CC(C)C)c(O)c1C#N | 21.2 |
| O=P(COCCO)(c1ccccc1)c1ccccc1 | -4.96 |
| COC(=O)c1c(Sc2ccccc2)c2ccccc2n1C | 11.4 |
| CCN1CCN(c2ccc(S(=O)(=O)N3CCCCC3)cc2NC(=O)/C=C/c2cccc(OC)c2OC)CC1 | -18.9 |
| CCOc1ccc(CCNC(=O)COC(=O)c2cccnc2Cl)cc1OCC | 8.39 |
| Cc1ccc(S(=O)(=O)Nc2nc(C)c(C(=O)NN)s2)cc1 | 8.62 |
| O=c1cc(-c2ccccc2)nc2c(-c3ccccc3)c(C(F)(F)F)[nH]n12 | 4.16 |
| Clc1cnc(Oc2ccc(Oc3ncc(Cl)cc3Cl)cc2)c(Cl)c1 | 1.79 |
| COc1cccc(CC(=O)N(CCC2=CCCCC2)c2c(N)n(Cc3ccccc3)c(=O)[nH]c2=O)c1 | -9.73 |
| CC1CC(C)CN(C(=O)c2ccc(CNc3c(N4CCCC4)c(=O)c3=O)cc2)C1 (stereo not shown) | -1.14 |
| O=C(NCc1ccc(N2CCCC2=O)cc1)NC1CCCCC1 | -5.61 |
| Clc1cc2c(cc1/C=N/Nc1nc(N3CCOCC3)nc(N3CCOCC3)n1)OCO2 | 0.865 |
| O=C(CNS(=O)(=O)c1ccccc1)NCc1cccnc1 | 8.46 |
| Nc1c(Cl)cc(C(=O)c2c3ccc([N+](=O)[O-])cc3[n+]([O-])n2CCC[NH3+])cc1Cl.O=C([O-])C(F)(F)F | -43.5 |
| Cc1cnc(C(=O)OCc2c(C)cc(C(C)(C)C)cc2C)cn1 | 8.68 |
| O=C1CN(C(=O)COC(=O)CCC(=O)c2ccc3c(c2)OCCO3)c2ccccc2N1 | -27.2 |

| Structure (SMILES) | hERG current change (%, negative = inhibition) at 10uM [%] |
| --- | --- |
| CC(=O)N1c2ccccc2C(=O)OC1c1cccnc1 (stereo not shown) | 19.5 |
| O=C(NCC(=O)N(Cc1ccccc1)C(C(=O)NCC1CCCO1)c1ccccc1)c1ccco1 (stereo not shown) | -9.05 |
| COc1ccc(CCC(=O)NCc2ccco2)cc1 | 0.176 |
| C[C@@H](NC(=O)C1(c2ccccc2)CCN(C(=O)OC(C)(C)C)CC1)C(=O)N[C@@H](C(=O)O)c1ccccc1 | 11.6 |
| CN(CC(=O)Nc1cccc(F)c1)C(=O)/C=C/c1cc(Br)ccc1OC(F)F | -54.8 |
| Cc1onc(-c2ccccc2)c1C(=O)N1CCN(c2ccc([N+](=O)[O-])cc2)CC1 | -36.4 |
| NS(=O)(=O)c1cccc(NC(=O)COC(=O)CC2CC3CCC2C3)c1 (stereo not shown) | -18.4 |
| C/C(=N\NC(=O)c1cc([N+](=O)[O-])cc([N+](=O)[O-])c1)c1ccco1 | 4.39 |
| CC(=O)Nc1ccc(S(=O)(=O)N2CCN(c3nc(C)cc(C)n3)CC2)cc1 | 5.68 |
| Cc1ccc2nc(-c3ccccc3NC(=O)CCC(=O)O)c(=O)[nH]c2c1 | 17.1 |
| CCO[C@@H]1OC(C(=O)N2CCN(Cc3ccc4c(c3)OCO4)CC2)=C[C@H](c2ccc(Br)cc2)[C@H]1CCCO | -20 |
| COc1cc(Br)c(CNc2cc(C)ccc2C)cc1OC.O=C(O)C(=O)O | 13 |
| Cc1ccc(C(=O)NCC(=O)OCC(=O)NC2CCCCCCC2)cc1 | -12.9 |
| COc1cc(OC)c(NC(=O)C2CC(=O)N(c3ccc4c(c3)OCCO4)C2)cc1Cl (stereo not shown) | -5.13 |
| Cn1nnnc1SC(C(=O)Nc1cccc(C(F)(F)F)c1)c1ccccc1 (stereo not shown) | -16.4 |
| CC(=O)n1cc([C@@H]2C=C(C(=O)N3CCN(Cc4ccc5c(c4)OCO5)CC3)O[C@H](OCc3ccc(CO)cc3)C2)c2ccccc21 | -17.5 |
| Cc1ccc(N2C(=O)CSC23C(=O)Nc2ccccc23)cc1 (stereo not shown) | 4.85 |
| CC(=O)N1CC(c2ccccc2)C(c2ccc(Cl)cc2)=N1 (stereo not shown) | -5.56 |
| O=C(Nc1ccc2c(c1)OCO2)C1CCCCC1 | 0.102 |
| N#Cc1cccc(NC(=O)CN2CCCCCC2)c1 | -10.9 |
| CC(=O)Nc1ccc(NC(=O)CN(c2ccccc2Cl)S(C)(=O)=O)cc1 | -3.6 |
| CC(C)c1[nH]nc2c1C(c1ccc(OC(=O)c3ccco3)cc1)C(C#N)=C(N)O2 (stereo not shown) | 6.55 |
| CCN(CC)C(=O)c1oc2ccc(S(=O)(=O)N3CC(C)CC(C)C3)cc2c1C (stereo not shown) | 13.6 |
| O=c1oc2cc(Oc3ccc(C(F)(F)F)cc3[N+](=O)[O-])ccc2c2c1CCC2 | -33 |
| COCCCNC(=O)c1ccc(C(=O)NCCCOC)cc1 | -0.736 |
| CC(C)(C)c1ccccc1OCCOCCNCc1ccccc1.O=C(O)C(=O)O | -18.4 |
